# Experimental data from PubChem BioAssay AID588342 (National Center for Advancing Translational Sciences (NCATS), 2011).
# Screen size: about 360,000 compounds; about 25,000 (6.9%) were called active. The inconclusive results got no clear call from the source; some entries with a clear call stand among them for comparison. Calls follow the shape of the dose curve; as a rule, active = well fitted inhibition curve with a large enough effect; inconclusive = small, poorly fitted or top-dose-only effect; inactive = flat fitted curve, though single readings scatter. Where the call is inconclusive, the potency comes from a doubtful curve fit.
# Molecular target: Luciferin 4-monooxygenase (Photinus pyralis) (UniProt P08659)
# UniProt P08659, sequence (P08659 whole entry, looked up): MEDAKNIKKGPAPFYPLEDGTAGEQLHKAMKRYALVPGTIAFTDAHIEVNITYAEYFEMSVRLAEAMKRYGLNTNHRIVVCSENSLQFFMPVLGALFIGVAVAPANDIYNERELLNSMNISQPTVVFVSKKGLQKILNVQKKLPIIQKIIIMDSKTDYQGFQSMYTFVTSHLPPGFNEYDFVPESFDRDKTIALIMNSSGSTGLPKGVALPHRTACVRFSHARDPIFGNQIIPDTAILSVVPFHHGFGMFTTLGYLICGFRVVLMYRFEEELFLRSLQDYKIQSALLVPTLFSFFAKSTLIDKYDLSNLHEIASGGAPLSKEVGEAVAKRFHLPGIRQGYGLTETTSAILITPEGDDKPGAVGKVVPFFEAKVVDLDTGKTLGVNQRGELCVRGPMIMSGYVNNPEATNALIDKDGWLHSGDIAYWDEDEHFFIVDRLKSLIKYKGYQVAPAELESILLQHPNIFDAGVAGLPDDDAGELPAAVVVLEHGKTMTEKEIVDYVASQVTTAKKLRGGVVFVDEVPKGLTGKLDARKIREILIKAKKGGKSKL
# Assay: qHTS profiling assay for firefly luciferase inhibitor/activator using purifed enzyme and Km concentrations of substrates (counterscreen for miR-21 project); also: nearly all actives have a fitted effect of over 55% in size;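 as to activity change, negative = inhibition: plate controls were vehicle for no effect and reference inhibitor for full effect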
# Settings: purified FLuc, luminescence inhibition; activity change, negative = inhibition: at 57.5 µM (top of the series)
# Outline: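 Purified P. pyralis luciferase, 10 nM final, with Km-level 10 uM D-luciferin and 10 uM ATP in 50 mM Tris acetate pH 7.5, 10 mM Mg acetate, 0.01% Tween-20, 0.05% BSA; 6-point qHTS titration about 60 µM downward; luminescence read.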
# Potency is read from the fitted curve at half-maximal effect; tags tell the direction and shape of the fitted curve.
SMILES,Potency,"activity change, negative = inhibition"
CC(C)(C)c1ccc(C(=O)Nc2ccc(NC(=O)C(=O)O)cc2)o1,active: 9.53 µM,
COc1cc2[nH]c(-c3ccc(C)cc3)cc(=O)c2cc1OC,active: 13.5 µM,
Brc1ccc(/C=C/C=N/Nc2nc3ccccc3s2)cc1,active: 9.53 µM,
COc1ccc(/C=N/NC(=O)c2ccc(Br)cc2)c(OC)c1,active: 15.1 µM,
Cc1ccc(-c2nnc(OCC3CCCO3)c3ccccc23)cc1 (stereo unspecified),"inconclusive: 37.9 µM [inhibitor, partial curve, poor fit]",
COc1cccc(Nc2ncccc2C(=O)Nc2ccccc2)c1,"inconclusive: 37.9 µM [inhibitor, partial curve, poor fit]",
O=C1/C(=C\c2ccco2)SC(=S)N1C1CCCCC1,"inconclusive: 23.9 µM [inhibitor, partial curve, poor fit]",
CCOCCCNc1ccc(-c2ccccc2)nn1,"inconclusive: 16.9 µM [inhibitor, partial curve, poor fit]",
CCN(CC)c1cc2c(cc1F)c(=O)c(S(=O)(=O)c1ccc(OC)cc1)cn2CC,,inactive: -8.22%
CC1=CC(=O)C=C(C)C1=NOC(=O)c1cccc([N+](=O)[O-])c1,"inconclusive: 4.78 µM [inhibitor, partial curve, poor fit]",
O=C(O)CSc1ccc(NC(=O)Nc2ccccc2F)cc1,active: 12 µM,
C=CCn1c(SCCNC(C)=O)nc2cc(-c3ccccc3)sc2c1=O,"inconclusive: 26.9 µM [inhibitor, single point]",
O=C(CSc1ccc([N+](=O)[O-])cn1)Nc1ccc(N2CCOCC2)c(Cl)c1,"inconclusive: 23.9 µM [inhibitor, partial curve, poor fit]",
CCOc1cccc2cc(C(=O)NCCC3=CCCCC3)c(=O)oc12,"inconclusive: 23.9 µM [inhibitor, single point]",
O=C(CNC(=O)c1ccccc1Br)N/N=C\c1cc([N+](=O)[O-])cc(Br)c1O,"inconclusive: 23.9 µM [inhibitor, single point]",
CCOC(=O)C1=C(O)/C(=C/c2ccccn2)SC1=Nc1ccc(Cl)cc1,,inactive: 1.93%
Brc1ccccc1OCCCn1cnc2ccccc21,active: 2.39 µM,
Oc1ccc(-c2cn3ccccc3n2)cc1,active: 5.36 µM,
Cc1cc(C)c2nc(NCc3ccccc3O)sc2c1,"inconclusive: 23.9 µM [inhibitor, single point]",
Cc1nn2c(-c3ccccc3)nnc2c2ccccc12,active: 19 µM,
COc1ccc(OC)c(C(=O)COC(=O)c2cccnc2Cl)c1,"inconclusive: 21.3 µM [inhibitor, partial curve, poor fit]",
Cc1cccc(NC(=S)NC(=O)c2ccco2)n1,"inconclusive: 23.9 µM [inhibitor, single point]",
O=C(Nc1ccc(N2CCOCC2)cc1)c1cc2c(s1)CCCCC2,active: 19 µM,
CCOC(=O)C1(Cc2ccccc2C)CCCN(C(=O)COC)C1 (stereo unspecified),"inconclusive: 26.9 µM [inhibitor, partial curve, poor fit]",
N#C/C(=C\c1ccc(Cl)cc1Cl)c1nc(-c2cccc(Cl)c2)cs1,,inactive: -1.7%
Cc1c(O)ccc(C(=O)COc2ccc(F)cc2)c1O,active: 12 µM,

SMILES,Potency,"activity change, negative = inhibition"
CCOC(=O)C(=O)N=Nc1c(O)n(C)c2ccccc12,,inactive: -7.94%
Fc1ccc(Nc2nc(NCc3ccco3)c3ccccc3n2)cc1,"inconclusive: 30.1 µM [inhibitor, partial curve, poor fit]",
COc1ccc(/C=C/C(=O)NC(=S)NNC(=O)c2ccco2)cc1,,inactive: -14.9%
COc1ccccc1Cc1nc2ccccc2nc1SCC(=O)N(C)c1ccc(F)cc1,,inactive: -8.57%
COc1ccc(/C=C/C(=O)Nc2sc3c(c2C(=O)NCc2cccnc2)CCCC3)cc1,"inconclusive: 10.7 µM [inhibitor, partial curve]",
Cc1cccc(N2CCN(C(=O)Nc3cn(CC(C)C)c(=O)c4ccccc34)CC2)c1C,,inactive: 5.23%
COc1ccc(C2c3[nH]c4ccccc4c3CCN2C(=O)c2cn3ccccc3n2)c(F)c1 (stereo unspecified),"inconclusive: 23.9 µM [inhibitor, partial curve, poor fit]",
Nc1c(-c2ccc(Cl)cc2)cnn1-c1cccc([N+](=O)[O-])c1,active: 15.1 µM,
Cc1ccc(NC(=O)C(C)c2cccc(C(=O)c3ccccc3)c2)cc1 (stereo unspecified),"inconclusive: 21.3 µM [inhibitor, partial curve]",
Cc1ccccc1-c1nc2cc(NC(=O)Cc3ccc(Cl)cc3)ccc2o1,,inactive: -10.2%
N=C1/C(=C\c2coc3ccccc3c2=O)C(=O)N=C2SC(c3ccncc3)=NN12,"inconclusive: 26.9 µM [inhibitor, partial curve, poor fit]",
Cc1cccc(N2CCN(C(=O)c3cccc(-n4c(C)nc5cccnc54)c3)CC2)c1C,,inactive: -4.36%
CSC1=N/C(=C/c2ccc(-n3cncn3)cc2)C(=O)N1,"inconclusive: 26.9 µM [inhibitor, partial curve, poor fit]",
COc1cc(OC)c(C(=O)NCc2ccco2)cc1OC,,inactive: -0.781%
Cc1nnc(SCCn2c(N3CCC(Cc4ccccc4)CC3)nc3c2c(=O)[nH]c(=O)n3C)s1,,inactive: -0.701%
COc1ccc(OC)c(/C=N/NC(=O)c2[nH]nc3c2CCc2ccccc2-3)c1,,inactive: 9.39%
Cc1ccc(C2=Nc3ccccc3SC(c3cccc([N+](=O)[O-])c3)C2)cc1 (stereo unspecified),"inconclusive: 16.9 µM [inhibitor, partial curve, poor fit]",
COc1cccc(N2CC(NC(=O)CCCc3ccccc3)CC2=O)c1 (stereo unspecified),,inactive: 0.154%
Cc1cccc(N2CSC3=C(C#N)C(c4ccc(C)o4)CC(=O)N3C2)c1 (stereo unspecified),active: 16.9 µM,
Cc1cccc2nc(CSc3ccc(Cl)cc3)cn12,active: 9.53 µM,
CN(C)c1ccc(/C=N/NC(=S)NCc2ccco2)cc1,"inconclusive: 19 µM [inhibitor, partial curve]",
COc1ccc(NC(=O)CSc2nnc(NC(=O)Nc3ccc(OC)cc3)s2)cc1,active: 0.379 µM,
N#Cc1c(N2CCOCC2)nsc1-c1ccccc1,"inconclusive: 16.9 µM [inhibitor, partial curve]",
O=C(/C=C/c1ccc(F)cc1)Nc1ccc2[nH]c(=O)[nH]c2c1,"inconclusive: 4.78 µM [inhibitor, partial curve]",
CCOc1ccc(CCNC(=O)CCCn2nc(C)c3sc4ccccc4c3c2=O)cc1,"inconclusive: 6.75 µM [inhibitor, partial curve, poor fit]",
CCOCCCNC(=O)c1ccc(N2CC3CC(C2)c2cccc(=O)n2C3)c(NC(=O)Nc2cccc(OC)c2)c1 (stereo unspecified),,inactive: -1.65%

SMILES,Potency,"activity change, negative = inhibition"
Cc1ccc(NC(=S)Nc2ccc3[nH]c(=O)[nH]c3c2)cc1,"inconclusive: 23.9 µM [inhibitor, single point]",
CC(C)CCNC(=O)C(=O)Nc1ccccc1,"inconclusive: 15.1 µM [inhibitor, partial curve]",
CC(C)(C)c1oc(C(=O)O)cc1CN1CCOCC1,,inactive: -0.297%
CN1CCN(C(=O)c2ccc(COc3ccc(C(C)(C)C)cc3)o2)CC1,active: 8.49 µM,
Cc1ccc(C)c(S(=O)(=O)N2CCN(C(=O)c3ccccc3Cc3ccccc3)CC2)c1,,inactive: -0.765%
c1ccc(-c2ccc(-c3csnn3)cc2)cc1,"inconclusive: 1.9 µM [inhibitor, full curve]",
CC(/C=N/NC(=O)c1ccc(Cn2cc([N+](=O)[O-])cn2)o1)=C\c1ccccc1,active: 2.39 µM,
COc1cc(NC(=O)c2cc3c(Cl)nc4ccccc4c3s2)cc(OC)c1OC,,inactive: -5.79%
O=C(COC(=O)c1cccs1)NCCC1=CCCCC1,active: 19 µM,
N=C1C(c2nc(-c3ccc(Cl)cc3)cs2)=C(O)CN1NC(=O)c1ccc(O)cc1,"inconclusive: 19 µM [inhibitor, single point]",
Cc1ccccc1-c1nc(CN2CCC(C(=O)NCc3ccccc3Cl)CC2)c(C)o1,"inconclusive: 37.9 µM [inhibitor, partial curve, poor fit]",
CC(Cc1ccccn1)NC(=O)c1ccc(OC2CCN(CCc3ccccc3)CC2)cc1 (stereo unspecified),"inconclusive: 23.9 µM [inhibitor, partial curve, poor fit]",
CCN(CC)C(=O)CSc1nnc(COc2ccccc2)n1N,,inactive: -2.1%
CCc1ccc(/C=C2\SC(=S)N(CCC(=O)N3CCN(C)CC3)C2=O)cc1,active: 2.69 µM,
COc1cc(C(=O)Oc2c(Sc3ccccc3)c(C)nn2-c2ccccc2)cc(OC)c1OC,"inconclusive: 37.9 µM [inhibitor, partial curve, poor fit]",
Cc1ccc(C)c(N2CCN(C(=O)c3ccc(NC(=O)c4nsc5ccccc45)cc3)CC2)c1,active: 16.9 µM,
Cc1nn(-c2ccccc2)c(OC(=O)C(C)C)c1Sc1ccc(Cl)cc1,active: 13.5 µM,
Cc1ccc(C(=O)NC2CCSC2=O)cc1 (stereo unspecified),,inactive: 4.18%
O=C(OCc1ccccc1)N1CCOCCOCCN(C(=O)OCc2ccccc2)CCOCCOCC1,,inactive: -2.57%
CCCOc1ccc(/C=N/NC(=O)CSCc2ccc([N+](=O)[O-])cc2)cc1OCC,,inactive: 2.66%
O=C(COc1ccc(Cl)cc1Cl)Nc1nc2n(n1)C(c1ccccc1)CC(=O)N2 (stereo unspecified),"inconclusive: 33.8 µM [inhibitor, partial curve, poor fit]",
O=C(/C=C/c1ccccc1)c1ccc2c(c1)OCO2,active: 2.13 µM,
Nc1n[nH]c(N)c1N=Nc1ccc(F)cc1,"inconclusive: 30.1 µM [inhibitor, partial curve, poor fit]",
COc1ccccc1C(=O)OCC#CCSc1nnc(-c2cccc3ccccc23)o1,"inconclusive: 37.9 µM [inhibitor, single point]",
